According to a collection of fitness landscapes (doi:10.1016/j.celrep.2020.107928):
Over roughly 81,000 sequences, “one-hybrid fitness for binding parS DNA” has its median near -0.17; the highest 2% begin near 0.51. The list shows a part of the results.

B1: Caulobacter ParB omega fusion; a variant is named by its letters at X, in order, B8GW30 (parent)
chain: MESVVVGEPGMSEGRRGLGRGLSALLGEVDAAPAQAPGEQLGGSREAPIEILQRNPDQPRRTFREEDLEDLSNSIREKGVLQPILVRPSPDTAGEYQIVAGERAWRAAQRAGLKTVPIMVRELDDLAVLEIGIIENVQRADLNVLEEALSYKVLMEKFERTQENIAQTIGKSXSHVANXMRLLXLPDEVQSYLVSGELTAXHARAIAAAADPVALAKQIIEGGLSVRETEALARKAPNLSAGKSKGGRPPRVKDTDTQALESDLSSVLGLDVSIDHRGSTGTLTITYATLEQLDDLCNRLTRGI

Variants of: B1
Experiment: one-hybrid fitness for binding parS DNA (scaled: cognate 1, non-cognate 0); higher = stronger binding
Conditions: with parS DNA site
In short: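 Caulobacter ParB libraries with four specificity codons randomised were screened by bacterial one-hybrid selection in the E. coli USO strain, using a HIS3 reporter whose site lies 19 bp from the promoter. Selection ran for 48 hours at 37°C on M9 lacking histidine, with 0.1 mM IPTG and 5 mM 3-AT. Plasmids were Illumina-sequenced before and after selection, three replicate libraries were pooled, and variants with under 10 reads were dropped. Fitness is the log change in each variant's read ratio to wild type, rescaled against the cognate and non-cognate sites.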

Variant	one-hybrid fitness for binding parS DNA
ATPS	≤ 0.2
HIQR	≤ 0.2
PKHC	≤ 0.2
TYLS	≤ 0.2
QGIP	≤ 0.2
QYKV	≤ 0.2
VSHK	≤ 0.2
ILMS	≤ 0.2
TRAD	≤ 0.2
QQQC	≤ 0.2
QGRY	≤ 0.2
QAET	≤ 0.2
ANCV	≤ 0.2
ALHF	≤ 0.2
RSGD	≤ 0.2
VTLY	≤ 0.2
TTMM	≤ 0.2
YSRI	≤ 0.2
FSEN	≤ 0.2
NKMR	≤ 0.2
TRSL	≤ 0.2
IMMI	≤ 0.2
PKLI	≤ 0.2
AHMR	≤ 0.2
NMIY	≤ 0.2
HNRD	≤ 0.2

Variant	one-hybrid fitness for binding parS DNA
QCDK	≤ 0.2
RCEA	0.515
RFMD	≤ 0.2
NTRK	≤ 0.2
KNPK	≤ 0.2
HAHW	≤ 0.2
SINL	≤ 0.2
PVNE	≤ 0.2
SFPD	≤ 0.2
MTEE	0.294
EHDA	≤ 0.2
QGTR	≤ 0.2
QTQE	≤ 0.2
DMMS	≤ 0.2
WCNG	≤ 0.2
YGAV	≤ 0.2
QILQ	≤ 0.2
WRKS	≤ 0.2
PMWR	≤ 0.2
TSPV	≤ 0.2
LWTS	≤ 0.2
RHMP	≤ 0.2
SDVG	≤ 0.2
KIHG	≤ 0.2
RLMD	≤ 0.2
YTGI	≤ 0.2

Variant	one-hybrid fitness for binding parS DNA
HSRT	≤ 0.2
GFRN	≤ 0.2
MAFS	≤ 0.2
EGHI	≤ 0.2
YWPG	≤ 0.2
DPKG	≤ 0.2
AGQD	≤ 0.2
QDIA	≤ 0.2
HQHT	≤ 0.2
LPEL	≤ 0.2
CNMM	≤ 0.2
AHTR	≤ 0.2
QDYC	≤ 0.2
SFNR	≤ 0.2
ESFV	≤ 0.2
VAHL	≤ 0.2
IQRA	≤ 0.2
RIWG	0.985
HKVI	≤ 0.2
SHFT	≤ 0.2
VHRM	≤ 0.2
LMTE	≤ 0.2
NFLM	≤ 0.2
KRKT	≤ 0.2
CGTT	≤ 0.2
QEPQ	≤ 0.2

Variant	one-hybrid fitness for binding parS DNA
KWKR	≤ 0.2
AWMS	≤ 0.2
TLEN	≤ 0.2
CLMT	≤ 0.2
PRVS	≤ 0.2
QQWG	≤ 0.2
LLGW	≤ 0.2
LDTE	≤ 0.2
FVTV	≤ 0.2
IPKR	≤ 0.2
TTTQ	≤ 0.2
LDAT	≤ 0.2
PYSV	≤ 0.2
RYAP	≤ 0.2
QMDA	≤ 0.2
QAWL	≤ 0.2
RWHS	0.894
HQRL	≤ 0.2
FIYR	≤ 0.2
MRKG	≤ 0.2
VEST	≤ 0.2
REPC	≤ 0.2
QETF	≤ 0.2
TGFT	≤ 0.2
TFSY	≤ 0.2
QSHE	≤ 0.2

Variant	one-hybrid fitness for binding parS DNA
FKRR	≤ 0.2
ALYV	≤ 0.2
EDKR	≤ 0.2
LTVR	≤ 0.2
QQWL	≤ 0.2
MRPG	≤ 0.2
RDGN	≤ 0.2
NPPD	≤ 0.2
ITDS	≤ 0.2
TEVE	≤ 0.2
MCTM	≤ 0.2
MQPN	≤ 0.2
NFER	≤ 0.2
RRGC	0.593
FQDS	≤ 0.2
NPVL	≤ 0.2
RADC	0.856
CLST	≤ 0.2
VSPM	≤ 0.2
KKKR	≤ 0.2
KLTA	≤ 0.2
CSDG	≤ 0.2
TVAT	≤ 0.2
NHTR	≤ 0.2
EKQS	≤ 0.2
FVKH	≤ 0.2

Variant	one-hybrid fitness for binding parS DNA
LNAW	≤ 0.2
RYYK	≤ 0.2
VWDM	≤ 0.2
MIIC	≤ 0.2
VAAW	≤ 0.2
CVCG	≤ 0.2
QISH	≤ 0.2
AVMH	≤ 0.2
MCMN	≤ 0.2
PKHI	≤ 0.2
IPRY	≤ 0.2
VDRS	≤ 0.2
AAYA	≤ 0.2
HNYQ	≤ 0.2
HDND	≤ 0.2
RDWG	≤ 0.2
FLDY	≤ 0.2
FLIG	≤ 0.2
RAHW	0.258
IMNL	≤ 0.2
AKPT	≤ 0.2
CNVS	≤ 0.2
QMRS	≤ 0.2
